Relative growth data for 67 molecules are collected here from the supplement of paper PMC9446081.

The structures appear in SMILES notation. In all, about 39,000 compounds went through this assay and about 220 (0.56%) showed activity. The list shows a part of the results.
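Note: static incubation at 37 °C against the wild-type strain, values averaged over two biological replicates.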

This assay deals with Escherichia coli K-12 BW25113. The assay is described as follows: relative growth (OD600 normalised to plate interquartile mean) (fraction); higher = less growth inhibition, active = 0.2 or less. The note with it: 50 µM; LB; incubation time: overnight (16-24 h).
Consider `C[C@@H]1CN([C@H](C)CO)C(=O)c2cc(NC(=O)CCN3CCOCC3)ccc2O[C@@H]1CN(C)Cc1ccncc1`, for which the relative growth was inactive: 1.01.
For the molecule `CCCCCCCCCCCCCCCc1cccc(OCC)c1C(=O)Nc1ccc(Cl)c(C(F)(F)F)c1`, the relative growth is inactive: 1.03.
As for `C[C@H]1CN([C@@H](C)CO)C(=O)Cc2cc(NC(=O)Nc3ccc(F)cc3)ccc2O[C@@H]1CN(C)Cc1ccc(C(=O)Nc2ccccc2N)cc1`, the figure is inactive: 1.03; as for `CC(C)c1ccc(/C=C/C(=O)O)cc1`, inactive: 0.992; as for `F[C@H]1CCNC1`, inactive: 1.
As for `C[C@H]1CN([C@@H](C)CO)C(=O)c2cc(Br)cnc2O[C@@H]1CN(C)S(=O)(=O)c1ccc(F)cc1`, the figure is inactive: 1.01.
For `COC(=O)c1c(C)c2c(c(C)c1O)OC(=O)c1c(C)c(Cl)c(O)c(Cl)c1O2`, the relative growth was inactive: 0.989.
The result for `COc1ccc(NC(=O)Nc2ccc3c(c2)CC(=O)N([C@H](C)CO)C[C@H](C)[C@@H](CN(C)Cc2ccc(C(F)(F)F)cc2)O3)cc1` reads inactive: 0.987; that for `C[C@H](CO)N1C[C@H](C)[C@H](CN(C)Cc2ccc(C(F)(F)F)cc2)Oc2c(NC(=O)NC3CCCCC3)cccc2C1=O`, inactive: 0.864.
As for `O=C(N[C@@H](c1ccc(-c2ccccc2)cc1)c1cnccn1)C1CCN(CCOc2ccc(F)cc2)CC1`, the figure is inactive: 0.946; as for `Cc1noc(C)c1NC(=O)N(C)C[C@@H]1Oc2cc(Br)ccc2S(=O)(=O)N([C@H](C)CO)C[C@@H]1C`, inactive: 0.97.
The result for `C[C@@H]1CN([C@@H](C)CO)C(=O)c2cc(NC(=O)NC3CCCCC3)ccc2O[C@@H](C)CCCCO[C@H]1CN(C)Cc1ccccc1` reads inactive: 0.988; that for `O=C(Cc1ccc(-c2ccccc2)cc1)Nc1c(C(=O)Nc2ccc3c(c2)OCCO3)oc2ccccc12`, inactive: 1.05; that for `CO[C@@H](CN(C)C(=O)c1ccc2c(c1)OCO2)[C@@H](C)CN([C@H](C)CO)S(=O)(=O)c1ccc(Cl)cc1`, inactive: 1.01.
`C[C@H]1CN([C@@H](C)CO)S(=O)(=O)c2ccc(C#CCN(C)C)cc2O[C@@H]1CN(C)C(=O)C1CCCCC1`: the relative growth was inactive: 1.01.
Take `O=C(C1=C[C@@H](c2csc3ccccc23)C[C@@H](OCc2ccc(CO)cc2)O1)N1CCN(Cc2ccccc2)CC1`: the relative growth is inactive: 1.02.
As to `Cc1noc(C)c1S(=O)(=O)N(C)C[C@@H]1OCc2cn(nn2)CCCC(=O)N([C@H](C)CO)C[C@H]1C`, the relative growth is inactive: 0.994.
With `C[C@H](N)C12CC3CC(CC(C3)C1)C2`, the relative growth is inactive: 0.975.
The result for `COCCc1nc2c([nH]1)c(=O)n(C)c(=O)n2C` reads inactive: 0.97; that for `CCCNC(=O)N1C[C@H](C)[C@@H](OC)CN(C)C(=O)c2cc(NS(=O)(=O)CC(F)(F)F)ccc2OC[C@H]1C`, inactive: 0.956; that for `COc1ccc(CN(C)C[C@H]2OCCCC[C@@H](C)Oc3ccc(NS(=O)(=O)c4ccc(Cl)cc4)cc3C(=O)N([C@H](C)CO)C[C@@H]2C)cc1`, inactive: 1.
As for `CCC(=O)O[C@H]1[C@@H]2CC3=C4CC(=O)O[C@@H](c5ccoc5)[C@]4(C)CC[C@@H]3[C@@](C)(C2=O)[C@@H](CC(=O)OC)C1(C)C`, the relative growth was inactive: 0.993.
As for `Cc1noc(C)c1S(=O)(=O)N(C)C[C@H]1Oc2ccc(NS(=O)(=O)c3ccc(F)cc3)cc2CC(=O)N([C@H](C)CO)C[C@@H]1C`, the figure is inactive: 1.04.
The result for `C[C@@H]1CN([C@@H](C)CO)C(=O)c2ccccc2-c2ccccc2CO[C@@H]1CN(C)S(=O)(=O)c1ccc(C(F)(F)F)cc1` reads inactive: 1.03; that for `C=C(C)C(=O)N1CCC=CC1=O`, inactive: 0.987.
On to `O=C(O)c1cnc(N2CCCC2)nc1`, for which the relative growth was inactive: 1.03.
As for `C[C@H]1CN([C@@H](C)CO)C(=O)c2cccc(NS(=O)(=O)c3ccc(F)cc3)c2O[C@H]1CN(C)C(=O)Nc1cccc2ccccc12`, the figure is inactive: 0.973.
As for `C[C@@H]1CCCCO[C@H](CN(C)Cc2ccc3c(c2)OCO3)[C@H](C)CN([C@@H](C)CO)C(=O)c2cc(NS(=O)(=O)c3ccccc3)ccc2O1`, the figure is inactive: 0.971; as for `COc1c(-c2ccccc2)oc2c(ccc3ccoc32)c1=O`, inactive: 0.916; as for `COc1ccccc1-c1ccc2c(c1)O[C@@H](CN(C)C(=O)c1cccnc1)[C@@H](C)CN([C@H](C)CO)S2(=O)=O`, inactive: 0.907.
As for `C[C@H](CO)N1C[C@H](C)[C@@H](CN(C)C(=O)NC2CCCCC2)OCCCC[C@H](C)Oc2ccc(NC(=O)Nc3ccccc3)cc2C1=O`, the figure is inactive: 1.01.
`O=c1c(O[C@@H]2O[C@H](CO)[C@@H](O)[C@H](O)[C@H]2O)c(-c2ccc(O)c(O)c2)oc2cc(O)cc(O)c12`: the relative growth is inactive: 1.04.
The result for `C[C@@H]1CN([C@@H](C)CO)C(=O)c2cccc(NC(=O)C3CCOCC3)c2O[C@H]1CN(C)S(=O)(=O)c1cccs1` reads inactive: 1; that for `Cc1noc(C)c1S(=O)(=O)N(C)C[C@@H]1Oc2ccc(NS(=O)(=O)c3ccc(F)cc3)cc2CC(=O)N([C@H](C)CO)C[C@@H]1C`, inactive: 1; that for `C[C@H](CO)N1C[C@H](C)[C@H](CN(C)C(=O)CCC(F)(F)F)OCCCC[C@H](C)Oc2ccc(NC(=O)Cc3ccccc3)cc2C1=O`, inactive: 1.04.
For `C[C@H]1CN([C@@H](C)CO)C(=O)c2cccc(NS(=O)(=O)c3ccc(F)cc3)c2O[C@@H]1CN(C)C(=O)Nc1ccc(C(F)(F)F)cc1`, the relative growth is inactive: 0.978.
In the case of `Cc1ccc2nncn2n1`, the relative growth was inactive: 1.
Turning to `Cc1ccc(S(=O)(=O)N(C)C[C@H]2Oc3ccc(NC(=O)c4ccncc4)cc3C(=O)N([C@H](C)CO)C[C@@H]2C)cc1`, the relative growth is inactive: 1.01.
The result for `O=C1[C@H]2[C@H](O)CS[C@H]2C(=O)N1c1ccccc1` reads inactive: 1.
The result for `Cc1ccc(S(=O)(=O)Nc2ccc3c(c2)CC(=O)N([C@H](C)CO)C[C@@H](C)[C@@H](CN(C)Cc2ccncc2)O3)cc1` reads inactive: 0.876; that for `Cc1noc(C)c1S(=O)(=O)Nc1ccc2c(c1)CC(=O)N([C@H](C)CO)C[C@@H](C)[C@@H](CN(C)S(=O)(=O)c1c(C)noc1C)O2`, inactive: 1.01.
As for `Cc1ccc(C)c(OCCCC(C)(C)C(=O)O)c1`, the figure is inactive: 1.18; as for `Cc1cc(C(=O)Nc2cccc3c2O[C@@H](CN(C)C(=O)NC(C)C)[C@@H](C)CN([C@H](C)CO)C3=O)n(C)n1`, inactive: 1; as for `C[C@@H]1CN([C@@H](C)CO)C(=O)Cc2cc(NC(=O)C3CCCCC3)ccc2O[C@H]1CN(C)Cc1ccc(Oc2ccccc2)cc1`, inactive: 1.02.
As to `CCOC(=O)c1c(CN2CCN(c3ccccc3)CC2)n(-c2ccccc2)c2cc(Br)c(O)cc12`, the relative growth is inactive: 1.03.
As for `C[C@H](CO)N1C[C@H](C)[C@H](CN(C)C(=O)Nc2ccc(C(F)(F)F)cc2)OCCCC[C@H](C)Oc2ccc(NS(=O)(=O)c3ccc(F)cc3)cc2C1=O`, the figure is inactive: 1.03; as for `OC[C@H]1O[C@@H](n2cnc3c(NCc4ccco4)ncnc32)[C@H](O)[C@@H]1O`, inactive: 0.956; as for `CCn1c2c(c3cc(C4CCCCC4)ccc31)CCC/C2=N\O`, inactive: 1.04.
As for `Cc1ccc(S(=O)(=O)N(C)C[C@H]2Oc3ccc(NC(=O)CCCN(C)C)cc3CC(=O)N([C@H](C)CO)C[C@H]2C)cc1`, the figure is inactive: 0.988.
The result for `C[C@@H]1CCCCO[C@H](CN(C)Cc2ccc(Cl)c(Cl)c2)[C@@H](C)CN([C@@H](C)CO)C(=O)c2cc(NC(=O)c3ccccc3)ccc2O1` reads inactive: 1.01; that for `NCc1ccccc1Oc1ccccc1`, inactive: 0.993.
As for `O=C(C[C@H]1C[C@H]2c3cc(NC(=O)c4ccc5c(c4)OCO5)ccc3O[C@H]2[C@H](CO)O1)NCCc1ccccc1`, the relative growth was inactive: 1.04.
The result for `COc1ccc(CN(C)C[C@@H]2Oc3ccc(NS(=O)(=O)c4c(C)noc4C)cc3CC(=O)N([C@H](C)CO)C[C@@H]2C)cc1` reads inactive: 1.01; that for `C[C@H](CO)N1C[C@H](C)[C@@H](CN(C)C(=O)Nc2cccc3ccccc23)Oc2c(NC(=O)Nc3ccccc3)cccc2C1=O`, inactive: 1.02; that for `CC(C)NC(=O)N[C@H]1C=C[C@H](CC(=O)O)O[C@@H]1CO`, inactive: 0.976.
Consider `OCCCC1=C[C@H](c2ccc(CN3CCCC3)cc2)N(Cc2cc3c(cc2Br)OCO3)CC1`, for which the relative growth was inactive: 1.03.
The result for `O=S1(=O)CCC(O)CC1` reads inactive: 0.999; that for `CC[N+](C)(C)c1cccc(O)c1.[Cl-]`, inactive: 1.13; that for `CN1CCN(C(=O)C[C@H]2CC[C@H]3[C@@H](COC[C@H](O)CN3C(=O)Nc3ccc4c(c3)OCO4)O2)CC1`, inactive: 1.
As for `C[C@H](CO)N1C[C@H](C)[C@H](CN(C)S(C)(=O)=O)Oc2ccc(NC(=O)c3ccncc3)cc2CC1=O`, the figure is inactive: 1.02; as for `COc1ccc(S(=O)(=O)N[C@@H]2C=C[C@@H](CC(=O)N3CCN(c4ccccc4)CC3)O[C@H]2CO)cc1`, inactive: 1.03.
Take `Cc1ccc(S(=O)(=O)Nc2ccc3c(c2)C(=O)N([C@H](C)CO)C[C@H](C)[C@@H](CN(C)C(=O)NC2CCCCC2)OCCCC[C@@H](C)O3)cc1`: the relative growth was inactive: 1.07.
The result for `Nc1ccncc1N` reads inactive: 0.969; that for `Cc1noc(C)c1NC(=O)Nc1ccc2c(c1)C(=O)N([C@H](C)CO)C[C@@H](C)[C@@H](CN(C)C(=O)Nc1cccc3ccccc13)O2`, inactive: 1.01.
As for `CNC[C@@H]1Oc2ccc(NC(=O)Cn3cnnn3)cc2CC(=O)N([C@H](C)CO)C[C@@H]1C`, the relative growth was inactive: 1.
As for `Nc1ccn([C@H]2C[C@@H](O)[C@@H](CO)O2)c(=O)n1`, the figure is inactive: 0.988; as for `C[C@H]1N(c2cnn(C)c2)C(=O)COC12CCN(S(C)(=O)=O)CC2`, inactive: 1.01.
